To fix the notation:
B1: PKP4_HUMAN_372_YA (peptide)
chain: GQQQADIYERMVPPR
B2: PKP4_HUMAN_415 (peptide)
chain: DLHITPIYEGRTYYS
B3: PIK3R1_HUMAN_368 (peptide)
chain: STKMHGDYTLTLRKG
B4: PIP5K1B_HUMAN_105 (peptide)
chain: FGIKPDDYLYSICSE
B5: PGFRB_HUMAN_970 (peptide)
chain: GEGYKKKYQQVDEEF
B6: PGFRA_HUMAN_762 (peptide)
chain: SDIQRSLYDRPASYK
B7: PI51C_HUMAN_649_YA (peptide)
chain: TDERSWVYSPLHASA
B8: PGFRB_HUMAN_740 (peptide)
chain: TGESDGGYMDMSKDE
B9: PLCG2_HUMAN_753_YA (peptide)
chain: ERDINSLYDVSRMAV
B10: PGFRB_HUMAN_751 (peptide)
chain: SKDESVDYVPMLDMK
B11: PI51C_HUMAN_639 (peptide)
chain: DAPATDIYFPTDERS
B12: PGFRB_HUMAN_579 (peptide)
chain: VSSDGHEYIYVDPMQ
B13: PLCG1_HUMAN_771 (peptide)
chain: IGTAEPDYGALYEGR
B14: PHF14_HUMAN_206 (peptide)
chain: ELNDMDDYDSEDDND
B15: PGFRB_HUMAN_581_YA (peptide)
chain: SDGHEAIYVDPMQLP
B16: PLEC_HUMAN_4393 (peptide)
chain: SVGSSSSYPISPAVS
B17: PLEC_HUMAN_4615_YA (peptide)
chain: TKGAASPYSVSGSGS
B18: PGFRB_HUMAN_934 (peptide)
chain: AHASDEIYEIMQKCW

The list shows a part of the results. Cut-off read from the data, not from the text of the source: active = 3.2 or more and inactive = the rest. Only a few entries rise above the background.
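Note: displayed peptides selected on beads carrying the immobilized SH2 domain, with library peptides lacking any tyrosine serving as negative controls.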

In the first experiment the target is SHP2 C-SH2 domain E139D. Kind of experiment: enrichment score (SH2-bound / input frequency) (ratio); bacterial display of known human phosphotyrosine sites (pTyr-Var adds point mutants) read by sequencing; higher = stronger binding; tyrosines were phosphorylated by kinases first. To be noted: peptide library: Human pTyr.
As to B1, the enrichment score was inactive: 0.601.

As for B2, the enrichment score was inactive: 0.913.

B3: the enrichment score was inactive: 0.906.

Consider B4, for which the enrichment score was inactive: 1.37.

As to B5, the enrichment score was inactive: 1.45.

As for B6, the enrichment score was inactive: 0.819.

As to B7, the enrichment score was inactive: 0.593.

Take B8: the enrichment score was inactive: 0.744.

As to B9, the enrichment score is inactive: 0.673.

As for B10, the enrichment score was inactive: 0.694.

Regarding B11, the enrichment score was inactive: 0.706.

For the molecule B12, the enrichment score is inactive: 0.902.

Turning to B13, the enrichment score is inactive: 0.519.

Turning to B14, the enrichment score was inactive: 0.808.

On to B15, for which the enrichment score is inactive: 0.616.

B16: the enrichment score is inactive: 0.584.

B17: the enrichment score was inactive: 0.379.

B18: the enrichment score is inactive: 1.46.

Another experiment addresses SHP2 C-SH2 domain wild-type. Described as above. To be noted: peptide library: Human pTyr.
B1: the enrichment score is inactive: 0.557.

As for B2, the enrichment score is inactive: 1.63.

As to B3, the enrichment score is inactive: 0.901.

Take B4: the enrichment score was inactive: 1.22.

As for B5, the enrichment score was inactive: 1.28.

Turning to B6, the enrichment score was inactive: 0.781.

Regarding B7, the enrichment score was inactive: 0.633.

As for B8, the enrichment score is inactive: 0.669.

B9: the enrichment score was inactive: 0.612.

For B10, the enrichment score was inactive: 0.641.

For the molecule B11, the enrichment score was inactive: 0.642.

Consider B12, for which the enrichment score is inactive: 0.789.

With B13, the enrichment score is inactive: 0.35.

Take B14: the enrichment score was inactive: 0.992.

As for B15, the enrichment score is inactive: 0.381.

As to B16, the enrichment score was inactive: 0.512.

For B17, the enrichment score is inactive: 0.433.

B18: the enrichment score is inactive: 1.4.

The target in another experiment is SHP2 N-SH2 domain L43F. The experiment is described as above. As to conditions: peptide library: Human pTyr.
Consider B1, for which the enrichment score is inactive: 0.94.

For the molecule B2, the enrichment score is inactive: 0.732.

B3: the enrichment score is inactive: 0.957.

Consider B4, for which the enrichment score is inactive: 1.12.

In the case of B5, the enrichment score is inactive: 1.22.

On to B6, for which the enrichment score is inactive: 0.851.

Turning to B7, the enrichment score was inactive: 0.701.

As for B8, the enrichment score is inactive: 0.824.

For the molecule B9, the enrichment score was inactive: 0.597.

As to B10, the enrichment score was inactive: 0.747.

With B11, the enrichment score was inactive: 0.647.

For the molecule B12, the enrichment score is inactive: 0.64.

On to B13, for which the enrichment score was inactive: 0.378.

Take B14: the enrichment score was inactive: 1.01.

Turning to B15, the enrichment score was inactive: 0.556.

For B16, the enrichment score was inactive: 0.569.

For B17, the enrichment score was inactive: 0.506.

With B18, the enrichment score is inactive: 1.41.

For another experiment, the target named is SHP2 N-SH2 domain T42A. Described as above. As to conditions: peptide library: Human pTyr.
With B1, the enrichment score is inactive: 0.556.

For the molecule B2, the enrichment score is inactive: 0.637.

As for B3, the enrichment score was inactive: 1.04.

In the case of B4, the enrichment score was inactive: 1.11.

Consider B5, for which the enrichment score was inactive: 1.23.

As to B6, the enrichment score is inactive: 0.717.

As to B7, the enrichment score was inactive: 0.637.

On to B8, for which the enrichment score is inactive: 0.633.

For B9, the enrichment score was inactive: 0.485.

As for B10, the enrichment score is inactive: 0.819.

With B11, the enrichment score is inactive: 0.6.

For B12, the enrichment score was inactive: 0.855.

On to B13, for which the enrichment score is inactive: 0.499.

For the molecule B14, the enrichment score is inactive: 0.763.

Consider B15, for which the enrichment score was inactive: 0.507.

As to B16, the enrichment score is inactive: 0.595.

As to B17, the enrichment score is inactive: 0.779.

As for B18, the enrichment score was inactive: 1.1.

The next experiment addresses SHP2 N-SH2 domain T52S. Described as above. To be noted: peptide library: Human pTyr.
On to B1, for which the enrichment score is inactive: 0.825.

With B2, the enrichment score was inactive: 0.932.

With B3, the enrichment score is inactive: 1.18.

On to B4, for which the enrichment score is inactive: 1.38.

On to B5, for which the enrichment score was inactive: 0.808.

Turning to B6, the enrichment score is inactive: 0.833.

In the case of B7, the enrichment score is inactive: 0.772.

Consider B8, for which the enrichment score is inactive: 0.922.

Regarding B9, the enrichment score is inactive: 0.597.

In the case of B10, the enrichment score was inactive: 0.68.

As for B11, the enrichment score is inactive: 0.728.

Consider B12, for which the enrichment score was inactive: 0.696.

For B13, the enrichment score was inactive: 0.459.

With B14, the enrichment score was inactive: 0.973.

For B15, the enrichment score was inactive: 0.627.

Turning to B16, the enrichment score is inactive: 0.566.

B17: the enrichment score is inactive: 0.472.

Turning to B18, the enrichment score is inactive: 1.39.

For a further experiment, the target named is SHP2 N-SH2 domain wild-type. The experiment is described as above. As to conditions: peptide library: Human pTyr.
As for B1, the enrichment score was inactive: 0.612.

In the case of B2, the enrichment score is inactive: 0.748.

As for B3, the enrichment score was inactive: 1.01.

As for B4, the enrichment score is inactive: 1.16.

Take B5: the enrichment score was inactive: 1.36.

Turning to B6, the enrichment score is inactive: 0.784.

Consider B7, for which the enrichment score is inactive: 0.67.

As for B8, the enrichment score is inactive: 0.632.

As to B9, the enrichment score was inactive: 0.71.

For B10, the enrichment score was inactive: 0.918.

For the molecule B11, the enrichment score is inactive: 0.721.

Take B12: the enrichment score is inactive: 0.616.

In the case of B13, the enrichment score was inactive: 0.411.

Take B14: the enrichment score is inactive: 1.

Consider B15, for which the enrichment score is inactive: 0.965.

Take B16: the enrichment score is inactive: 0.725.

Consider B17, for which the enrichment score was inactive: 0.665.

As to B18, the enrichment score is inactive: 1.67.

The values are drawn from the supplement of paper PMC10369915.
